Source: PubChem BioAssay AID588855 (National Center for Advancing Translational Sciences (NCATS), 2011)
Hit rate of the full screen: of about 410,000 compounds, about 5,000 (1.2%) were called active. This list was built around the results that the source calls inconclusive (neither active nor inactive); the mix of calls is not that of the screen. Calls follow the shape of the dose curve; as a rule, active = well fitted inhibition curve with a large enough effect; inconclusive = small, poorly fitted or top-dose-only effect; inactive = no such curve, though single readings can be large or run the other way. Potencies beside an inconclusive call are fits to weak or partial responses and may not hold up.

Test: qHTS for Inhibitors of TGF-b; also: nearly all actives have a fitted effect of over 65% in size
Conditions: HepG2 CAGA-GFP TGF-b/SMAD3 reporter, GFP fluorescence, 18 h, TGF-beta stimulated, 500 pg/mL final; series mostly up to 46.1 µM; activity, negative = inhibition: at the top concentration
Method in brief: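 Inhibition of TGF-beta-driven CAGA-GFP reporter expression in HEPG2 cells is measured by cellular GFP fluorescence after 18 h stimulation with 500 pg/mL recombinant TGF-beta in 1% FBS medium at 37 degrees C.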
% is scaled to controls: 0 for no effect and ±100 for the full control effect; potency is read from the fitted curve at half-maximal effect; tags tell the direction and shape of the fitted curve.

| SMILES | Potency | activity, negative = inhibition |
| --- | --- | --- |
| CC(C)(C)OC(=O)[C@H](Cc1ccccc1)NC(=O)c1nc[nH]c1C(=O)NC1CCN(C(=O)OC(C)(C)C)CC1 | inconclusive: 35.5 µM [inhibitor, single point] |  |
| CCC(=O)N1CCc2cc(S(=O)(=O)CCC(=O)Nc3ccc(Cl)c(C(F)(F)F)c3)ccc21 | inconclusive: 11.2 µM [inhibitor, partial curve] |  |
| CCCCC(=O)NC(=S)NNC(=O)c1ccc(Cl)cc1Cl | inconclusive: 14.1 µM [inhibitor, single point] |  |
| CC1Sc2ccc(S(=O)(=O)NCCc3ccccc3)cc2NC1=O (stereo unspecified) | inconclusive: 17.8 µM [inhibitor, single point] |  |
| CC(C)Oc1ccc(C(=O)NC2(C(F)(F)F)NC(=O)N(CCCc3ccccc3)C2=O)cc1 (stereo unspecified) | inconclusive: 35.5 µM [inhibitor, single point] |  |
| CCn1nc(C)c(CN2CCC(C(=O)Nc3cccc(-c4cccc(F)c4)c3)CC2)c1C | inconclusive: 3.55 µM [inhibitor, single point] |  |
| CCC1CCCCN1C(=O)COC(=O)c1n[nH]c2ccccc12 (stereo unspecified) |  | inactive: -9.44% |
| O=C(COc1ccc(Cl)cc1)Nc1ccc(CN2CCOCC2)cc1 |  | inactive: -5.15% |
| FC(F)(F)c1ccccc1N/N=C/c1cccnc1 |  | inactive: -13.8% |
| NC(N)=N/N=C/c1ccc(OS(=O)(=O)c2ccccc2)cc1 | inconclusive: 35.5 µM [inhibitor, single point] |  |
| COc1ccccc1OCCNS(=O)(=O)c1ccc2oc3ccccc3c2c1 | inconclusive: 11.2 µM [inhibitor, partial curve] |  |
| CCCNC(=O)COc1coc(CN2CCN(Cc3ccccc3)CC2)cc1=O | inconclusive: 1.41 µM [inhibitor, partial curve, poor fit] |  |
| O=C(Oc1c(CN2CCOCC2)cc(Cl)c2cccnc12)c1ccccc1 | active: 2.82 µM |  |
| Cc1cc(C)c2oc(-c3cccc(NC(=O)c4ccco4)c3)nc2c1 |  | inactive: -1.22% |
| Cc1c(Cc2ccc3c(c2)OCO3)sc(NC(=O)C2CC2)c1C(N)=O |  | inactive: -1.45% |
| COC(=O)c1cc(Br)c(=O)n(Cc2ccco2)c1 |  | inactive: 8.06% |
| Cc1cc(Cl)ccc1OCC(=O)NCCCCc1ccccc1 | inconclusive: 35.5 µM [inhibitor, single point] |  |
| CCn1ncc(C2=NOC(C(=O)NCc3ccccc3)C2)c1C (stereo unspecified) | inconclusive: 35.5 µM [inhibitor, single point] |  |
| CCCNC(=O)c1ccc2c(=O)c(O)c(-c3ccc(C)cc3)[nH]c2c1 | inconclusive: 8.91 µM [inhibitor, partial curve] |  |
| CC(C)(C)OC(=O)CNC(=O)c1[nH]cnc1C(=O)N[C@@H](Cc1ccccc1)C(=O)OCc1ccccc1 | inconclusive: 35.5 µM [inhibitor, single point] |  |
| COc1ccc(Cl)cc1NC(=O)CN(C)S(=O)(=O)c1ccc(Br)s1 | inconclusive: 11.2 µM [inhibitor, partial curve] |  |
| Cc1ccc(S(=O)(=O)Nc2ccc3cc([N+](=O)[O-])ccc3c2[N+](=O)[O-])cc1 | inconclusive: 20 µM [inhibitor, single point] |  |
| Cc1ccc(-c2csc(NC(=O)C3CCN(S(=O)(=O)c4cccs4)CC3)n2)cc1 |  | inactive: -26.3% |

| SMILES | Potency | activity, negative = inhibition |
| --- | --- | --- |
| COc1ccc(-c2c(C#Cc3ccsc3)c3cc(Br)ccc3n2C)cc1 |  | inactive: -10.8% |
| Cc1nnc2n(-c3ccccc3)c(=O)c3c4c(sc3n12)COC(C(C)C)C4 (stereo unspecified) |  | inactive: 0% |
| CCOC(CN=c1nc(N(C)C)ss1)OCC | inconclusive: 0.562 µM [inhibitor, full curve, poor fit] |  |
| Cc1cc(O)c(C(C)C)cc1N=Cc1ccccc1O | inconclusive: 35.5 µM [inhibitor, single point] |  |
| Cc1ccc(Cl)cc1N1CCN(C(=O)c2ccc3c(c2)N(Cc2ccccc2F)C(=O)c2ccccc2S3(=O)=O)CC1 |  | inactive: -1.66% |
| Cc1nc2c(C(=O)N(C)Cc3ccccc3)c[nH]n2c(=O)c1Cc1ccc(Cl)cc1 | inconclusive: 0.794 µM [inhibitor, partial curve, poor fit] |  |
| Clc1ccc2nc(-c3ccco3)c(Cc3ccccc3)n2c1 | active: 11.2 µM |  |
| O=C(NCc1ccccc1)c1nc(-c2cccs2)no1 | inconclusive: 8.91 µM [inhibitor, partial curve, poor fit] |  |
| COc1ccccc1Cc1c(C(C)(C)C)nc2ccc(C)cn12 | inconclusive: 35.5 µM [inhibitor, single point] |  |
| CCCC(O)(c1ccc(Cl)cc1)C(CN1CCOCC1)c1ccc(Cl)cc1 (stereo unspecified) | inconclusive: 20 µM [inhibitor, single point] |  |
| COc1cccc(-c2nc(CS(=O)(=O)CC(=O)NCc3ccccc3OC)c(C)o2)c1 | inconclusive: 35.5 µM [inhibitor, single point] |  |
| COCCN(Cc1ccccc1)C(=O)Cc1ccc(OC)c(S(=O)(=O)N2CCOCC2)c1 |  | inactive: 0.536% |
| CCCOc1ccc(C(=O)Nc2ccc(Cl)cn2)cc1 |  | inactive: 12.7% |
| CCOC(=O)CNC(=O)C12CC3CC(CC(C3)C1)C2 |  | inactive: 5.72% |
| CCN(CC)CCCNC(=O)Cn1nc(N2CCN(c3ccccc3OC)CC2)ccc1=O |  | inactive: 8.9% |
| O=C(NNC1=C(C(=O)C(F)(F)F)CCC1)c1cccnc1 |  | inactive: -4.24% |
| COc1cc(OC)c(N(C)C(=O)c2nn(C)c3c2CSc2ccccc2-3)cc1Cl | inconclusive: 35.5 µM [inhibitor, single point] |  |
| CCN1C=C(Cc2ccc(OC)cc2)C2=C(C1)C(c1ccc(OC)cc1)C(C#N)=C(N)O2 (stereo unspecified) |  | inactive: 14% |
| C=C(C)C1CCC2(C(=O)O)CCC3(C)C(CCC4C5(C)C(C=O)C(O)C(C)(C)C5CCC43C)C12 (stereo unspecified) | active: 12.6 µM |  |
| CC(=O)C1=C(c2ccc(Cl)c(Cl)c2)N(C(C)=O)n2c(C)nnc2S1 | inconclusive: 3.55 µM [inhibitor, full curve, poor fit] |  |
| O=C(CCC(=O)N1CCOCC1)Nc1nnc(C2CCCCC2)s1 |  | inactive: 8.27% |
| O=C(NCCc1ccccn1)c1cc(-c2ccc(Cl)c(Cl)c2Cl)nc2ccccc12 | inconclusive: 35.5 µM [inhibitor, single point] |  |
| Cc1cccc(N2CCN(C(=O)CC(NC(=O)c3ccccc3Cl)c3ccccc3)CC2)c1C (stereo unspecified) | inconclusive: 14.1 µM [inhibitor, single point] |  |
